In all, about 370,000 compounds went through this assay and about 150 (0.041%) were called active. The inconclusive results got no clear call from the source; some entries with a clear call stand among them for comparison. The call rests on the fitted dose curve; in most records, active means well fitted inhibition curve with a large enough effect; inconclusive means small, poorly fitted or top-dose-only effect; inactive means flat fitted curve, though single readings scatter. No potency is given beside an inconclusive call; the fits are too rough.
target: Beta-lactamase (Escherichia coli (strain K12)) (UniProt P00811); assay: qHTS Inhibitors of AmpC Beta-Lactamase (assay with detergent); conditions: AmpC hydrolysis of nitrocefin, absorbance 480 nm, 0.01% Triton; series mostly up to 114 µM; further: nearly all actives have a fitted effect of over 25% in size
Summary of the method: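 20 mM phosphate pH 7.0 + 0.01% (detergent screen) or 0.0001% Triton X-100; 5.3 nM AmpC reagent; cpd preinc 15 min RT; nitrocefin (800 uM stock) to start; A480 q20 s × 4 min; Activity was normalised to no-enzyme and no-compound control wells.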
Potency means the concentration at half of the fitted maximal effect; tags describe the fitted curve by direction and shape.

Chain of UniProt P00811 (P00811 whole entry, looked up): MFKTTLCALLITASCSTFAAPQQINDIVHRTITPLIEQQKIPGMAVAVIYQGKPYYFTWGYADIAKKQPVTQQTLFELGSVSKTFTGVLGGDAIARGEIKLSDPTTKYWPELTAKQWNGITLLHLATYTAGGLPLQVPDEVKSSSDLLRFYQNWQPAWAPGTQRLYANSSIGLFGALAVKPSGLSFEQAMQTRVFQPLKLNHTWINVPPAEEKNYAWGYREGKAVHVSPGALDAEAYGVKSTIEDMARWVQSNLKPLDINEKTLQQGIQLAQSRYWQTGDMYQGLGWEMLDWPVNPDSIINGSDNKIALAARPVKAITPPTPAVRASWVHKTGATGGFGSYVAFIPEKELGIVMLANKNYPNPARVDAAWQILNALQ

| Compound | Potency |
| --- | --- |
| O=C(Nc1cc(Cl)ccc1-n1cncn1)c1cc(F)cc(F)c1 | inconclusive [inhibitor, partial curve, poor fit] |
| CCOC(=O)c1c(NC(=O)COc2ccc(F)cc2)sc2c1CCC(C)C2 (stereo not given) | inactive |
| Cc1ccc(-n2c(-c3cccs3)nc3ccccc3c2=O)cc1 | inconclusive [inhibitor, single point] |
| CCOC(=O)N/N=C(\C)c1ccc(OC(F)F)cc1OC(F)F | inconclusive [inhibitor, single point] |
| CC1CCN(Cc2c(C#N)c3ccccc3n2C)CC1 | inconclusive [inhibitor, full curve] |
| CCOC(=O)Cn1c2c(c(=N)c3c1CCC3)CCC2 | inconclusive [inhibitor, partial curve, poor fit] |
| S=C(NCc1cccs1)Nc1cc(Cl)cc(Cl)c1 | inconclusive [inhibitor, single point] |
| Cc1nn(-c2ccccc2)c2c1C(c1ccco1)C(C#N)=C(N)O2 (stereo not given) | inconclusive [inhibitor, single point] |
| CCOC(=O)C(=Cc1ccc(-n2ccnc2)cc1)C(=O)OCC | inactive |
| COc1cccc(CNC(=O)CCn2cccn2)c1 | inactive |
| CCCCC(CC)CN1C(=O)/C(=C/c2ccncc2)SC1=S (stereo not given) | inactive |
| Cc1nn(C)c(C(=O)NNC(=S)NC2CCCCC2)c1Br | inactive |
| O=C(COC(=O)c1ccccc1)Nc1ccc2[nH]c(=O)[nH]c2c1 | inconclusive [inhibitor, full curve, poor fit] |
| Cc1ccc(NS(=O)(=O)c2ccccc2Cl)c2c1CC(C)(C)O2 | inconclusive [inhibitor, partial curve, poor fit] |
| CC1(C)Cc2c(sc3c2c(=N)n(Cc2ccco2)c(=O)n3CC(=O)Nc2ccc(Cl)cc2)CO1 | inactive |
| CC(C)OC(=O)c1cccnc1SCC(=O)N(C)c1ccccc1 | inconclusive [inhibitor, full curve, poor fit] |
| O=C(Cc1csc(-c2ccc(Cl)cc2)n1)Nc1cccc(S(=O)(=O)NC2=NCCC2)c1 | inconclusive [inhibitor, single point] |
| O=C(CSc1nnnn1C1CC1)Nc1ccc(S(=O)(=O)N2CCOCC2)cc1 | inactive |
| COc1cccc(C2C(C#N)=C(N)Oc3cc(N)ccc32)c1OC (stereo not given) | inconclusive [inhibitor, full curve, poor fit] |
| O=C(NCc1ccco1)c1ccc(Cn2cc([N+](=O)[O-])cn2)o1 | inactive |

— PubChem BioAssay AID485294 (National Center for Advancing Translational Sciences (NCATS), 2010)
